This is one part of the list.

This passage reports binding signal results from paper PMC12820563, “FoxP3 forms a head-to-head dimer in vivo and stabilizes its multimerization on adjacent microsatellites”.

In this assay the target is T1, MBP-FoxP1dN (Mus musculus, UniProt P58462 326-579).
T1 sequence: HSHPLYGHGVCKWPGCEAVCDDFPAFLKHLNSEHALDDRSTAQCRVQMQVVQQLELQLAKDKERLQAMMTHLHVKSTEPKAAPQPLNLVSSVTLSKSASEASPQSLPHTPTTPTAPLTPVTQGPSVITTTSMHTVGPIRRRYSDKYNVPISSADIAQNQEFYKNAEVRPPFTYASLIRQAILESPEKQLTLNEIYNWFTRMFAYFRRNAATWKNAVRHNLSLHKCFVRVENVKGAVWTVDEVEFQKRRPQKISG
Description: PD-seq (MBP pull-down with sequencing); 20 mM Tris-HCl pH 7.5, 100 mM NaCl, 1.5 mM MgCl2, 0.4 uM protein, 0.1 uM dsDNA library, 30 min, room temperature, amylose pull-down; high values mean tight binding. The note with it: protein: recombinant; tags: His6-MBP; chain copies: 2; dsDNA, one strand shown. An outline of the steps:
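A fragment of mouse FoxP3 or FoxP1 without its N-terminus, carrying a His6-MBP tag and produced in E. coli, was combined at 0.4 µM with a 0.1 µM degenerate double-stranded DNA library filled in with Klenow. The mixture sat for 30 min at room temperature in Tris pH 7.5 buffer containing NaCl and MgCl2. Protein–DNA complexes were captured on amylose resin, washed three times, and the DNA was freed with proteinase K, barcoded by PCR and sequenced on Illumina. Binding is expressed as reads-per-million enrichment of pull-down over input, with replicates pooled.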
“GATGATTGTTCTCCCAGCTGATGAATTTGGTTCATCGAGTAAACAAATTTTCCTAATCTTTCTGTTCAAGCGCCATCTAC”: the binding signal was 0.956 RPM ratio (pull-down/input).

Regarding “GATGATTGTTCTCCCAGCTGATGAATTGTAGGAATCGAGTAAACAAATTTTCCTAATCTTTCTGTTCAAGCGCCATCTAC”, the binding signal was 1.07 RPM ratio (pull-down/input).

Regarding “GATGATTGTTCTCCCAGCTGATGAATTTTACGCCTCGAGTAAACAAATTTTCCTAATCTTTCTGTTCAAGCGCCATCTAC”, the binding signal is 0.911 RPM ratio (pull-down/input).

For “GATGATTGTTCTCCCAGCTGATGAATTGTACATCTCGAGTAAACAAATTTTCCTAATCTTTCTGTTCAAGCGCCATCTAC”, the binding signal was 1.05 RPM ratio (pull-down/input).

As to “GATGATTGTTCTCCCAGCTGATGAATTTATAGCCTCGAGTAAACAAATTTTCCTAATCTTTCTGTTCAAGCGCCATCTAC”, the binding signal is 0.978 RPM ratio (pull-down/input).

On to “GATGATTGTTCTCCCAGCTGATGAATTGTGTCGATCGAGTAAACAAATTTTCCTAATCTTTCTGTTCAAGCGCCATCTAC”, for which the binding signal is 1.1 RPM ratio (pull-down/input).

As to “GATGATTGTTCTCCCAGCTGATGAATTCCTCCCTTCGAGTAAACAAATTTTCCTAATCTTTCTGTTCAAGCGCCATCTAC”, the binding signal was 0.782 RPM ratio (pull-down/input).

In the case of “GATGATTGTTCTCCCAGCTGATGAATTGTAGGATTCGAGTAAACAAATTTTCCTAATCTTTCTGTTCAAGCGCCATCTAC”, the binding signal was 1.02 RPM ratio (pull-down/input).

For “GATGATTGTTCTCCCAGCTGATGAATTGCTTCCGTCGAGTAAACAAATTTTCCTAATCTTTCTGTTCAAGCGCCATCTAC”, the binding signal was 1.04 RPM ratio (pull-down/input).

Consider “GATGATTGTTCTCCCAGCTGATGAATTGGCTGCTTCGAGTAAACAAATTTTCCTAATCTTTCTGTTCAAGCGCCATCTAC”, for which the binding signal was 0.8 RPM ratio (pull-down/input).

As for “GATGATTGTTCTCCCAGCTGATGAATTTGTGTTATCGAGTAAACAAATTTTCCTAATCTTTCTGTTCAAGCGCCATCTAC”, the binding signal was 2.08 RPM ratio (pull-down/input).

“GATGATTGTTCTCCCAGCTGATGAATTATGGTGGTCGAGTAAACAAATTTTCCTAATCTTTCTGTTCAAGCGCCATCTAC”: the binding signal was 0.999 RPM ratio (pull-down/input).

For the sequence “GATGATTGTTCTCCCAGCTGATGAATTCTCACATTCGAGTAAACAAATTTTCCTAATCTTTCTGTTCAAGCGCCATCTAC”, the binding signal was 0.935 RPM ratio (pull-down/input).

Consider “GATGATTGTTCTCCCAGCTGATGAATTCGTGGCATCGAGTAAACAAATTTTCCTAATCTTTCTGTTCAAGCGCCATCTAC”, for which the binding signal is 1.05 RPM ratio (pull-down/input).

For “GATGATTGTTCTCCCAGCTGATGAATTTACTATCTCGAGTAAACAAATTTTCCTAATCTTTCTGTTCAAGCGCCATCTAC”, the binding signal was 1.29 RPM ratio (pull-down/input).

On to “GATGATTGTTCTCCCAGCTGATGAATTACTAGGATCGAGTAAACAAATTTTCCTAATCTTTCTGTTCAAGCGCCATCTAC”, for which the binding signal is 1.09 RPM ratio (pull-down/input).

As for “GATGATTGTTCTCCCAGCTGATGAATTTCCCGCGTCGAGTAAACAAATTTTCCTAATCTTTCTGTTCAAGCGCCATCTAC”, the binding signal was 0.903 RPM ratio (pull-down/input).

With “GATGATTGTTCTCCCAGCTGATGAATTGATCCATTCGAGTAAACAAATTTTCCTAATCTTTCTGTTCAAGCGCCATCTAC”, the binding signal is 0.998 RPM ratio (pull-down/input).

“GATGATTGTTCTCCCAGCTGATGAATTAAGGCTCTCGAGTAAACAAATTTTCCTAATCTTTCTGTTCAAGCGCCATCTAC”: the binding signal is 0.897 RPM ratio (pull-down/input).

Turning to “GATGATTGTTCTCCCAGCTGATGAATTTATCGATTCGAGTAAACAAATTTTCCTAATCTTTCTGTTCAAGCGCCATCTAC”, the binding signal is 1.16 RPM ratio (pull-down/input).

Take “GATGATTGTTCTCCCAGCTGATGAATTCCTTAGCTCGAGTAAACAAATTTTCCTAATCTTTCTGTTCAAGCGCCATCTAC”: the binding signal was 0.772 RPM ratio (pull-down/input).

On to “GATGATTGTTCTCCCAGCTGATGAATTCGGTATGTCGAGTAAACAAATTTTCCTAATCTTTCTGTTCAAGCGCCATCTAC”, for which the binding signal was 0.927 RPM ratio (pull-down/input).

“GATGATTGTTCTCCCAGCTGATGAATTACCTGATTCGAGTAAACAAATTTTCCTAATCTTTCTGTTCAAGCGCCATCTAC”: the binding signal was 1.04 RPM ratio (pull-down/input).

For “GATGATTGTTCTCCCAGCTGATGAATTAGATCTCTCGAGTAAACAAATTTTCCTAATCTTTCTGTTCAAGCGCCATCTAC”, the binding signal is 0.813 RPM ratio (pull-down/input).

Take “GATGATTGTTCTCCCAGCTGATGAATTAACGGCTTCGAGTAAACAAATTTTCCTAATCTTTCTGTTCAAGCGCCATCTAC”: the binding signal was 0.892 RPM ratio (pull-down/input).

With “GATGATTGTTCTCCCAGCTGATGAATTCTACTCTTCGAGTAAACAAATTTTCCTAATCTTTCTGTTCAAGCGCCATCTAC”, the binding signal is 0.918 RPM ratio (pull-down/input).

Take “GATGATTGTTCTCCCAGCTGATGAATTCTACTTCTCGAGTAAACAAATTTTCCTAATCTTTCTGTTCAAGCGCCATCTAC”: the binding signal is 0.814 RPM ratio (pull-down/input).

As to “GATGATTGTTCTCCCAGCTGATGAATTCATAGACTCGAGTAAACAAATTTTCCTAATCTTTCTGTTCAAGCGCCATCTAC”, the binding signal was 0.762 RPM ratio (pull-down/input).

Turning to “GATGATTGTTCTCCCAGCTGATGAATTTCAGCACTCGAGTAAACAAATTTTCCTAATCTTTCTGTTCAAGCGCCATCTAC”, the binding signal was 0.8 RPM ratio (pull-down/input).

As for “GATGATTGTTCTCCCAGCTGATGAATTAGCTTTTTCGAGTAAACAAATTTTCCTAATCTTTCTGTTCAAGCGCCATCTAC”, the binding signal is 0.956 RPM ratio (pull-down/input).

Take “GATGATTGTTCTCCCAGCTGATGAATTGCTATGTTCGAGTAAACAAATTTTCCTAATCTTTCTGTTCAAGCGCCATCTAC”: the binding signal was 1.24 RPM ratio (pull-down/input).

For the sequence “GATGATTGTTCTCCCAGCTGATGAATTTTCTTTATCGAGTAAACAAATTTTCCTAATCTTTCTGTTCAAGCGCCATCTAC”, the binding signal is 1.2 RPM ratio (pull-down/input).

Consider “GATGATTGTTCTCCCAGCTGATGAATTTCTCCTTTCGAGTAAACAAATTTTCCTAATCTTTCTGTTCAAGCGCCATCTAC”, for which the binding signal is 0.95 RPM ratio (pull-down/input).

For “GATGATTGTTCTCCCAGCTGATGAATTGTGTTTTTCGAGTAAACAAATTTTCCTAATCTTTCTGTTCAAGCGCCATCTAC”, the binding signal is 2.33 RPM ratio (pull-down/input).

Take “GATGATTGTTCTCCCAGCTGATGAATTAAAAGGCTCGAGTAAACAAATTTTCCTAATCTTTCTGTTCAAGCGCCATCTAC”: the binding signal is 0.898 RPM ratio (pull-down/input).

For the sequence “GATGATTGTTCTCCCAGCTGATGAATTATTGTGGTCGAGTAAACAAATTTTCCTAATCTTTCTGTTCAAGCGCCATCTAC”, the binding signal was 1.51 RPM ratio (pull-down/input).

Turning to “GATGATTGTTCTCCCAGCTGATGAATTTACAGCTTCGAGTAAACAAATTTTCCTAATCTTTCTGTTCAAGCGCCATCTAC”, the binding signal was 1.17 RPM ratio (pull-down/input).

With “GATGATTGTTCTCCCAGCTGATGAATTCCTATAGTCGAGTAAACAAATTTTCCTAATCTTTCTGTTCAAGCGCCATCTAC”, the binding signal was 0.82 RPM ratio (pull-down/input).

Turning to “GATGATTGTTCTCCCAGCTGATGAATTTCAGATCTCGAGTAAACAAATTTTCCTAATCTTTCTGTTCAAGCGCCATCTAC”, the binding signal was 0.814 RPM ratio (pull-down/input).

“GATGATTGTTCTCCCAGCTGATGAATTGGTTTTGTCGAGTAAACAAATTTTCCTAATCTTTCTGTTCAAGCGCCATCTAC”: the binding signal was 1.12 RPM ratio (pull-down/input).
